Test results from ChEMBL document CHEMBL4888484, “Replenishing the malaria drug discovery pipeline: Screening and hit evaluation of the MMV Hit Generation Library 1 (HGL1) against asexual blood stage Plasmodium falciparum ,using a nano luciferase reporter read-out” (2022).
About 540 (0.36%) of roughly 150,000 compounds showed an effect of 50% or more. The list shows a part of the results.

system: Plasmodium falciparum; assay: Primary screen in NF54 nanoGlo assay, in single point, at 2uM, 72h; a lower Z score goes with more inhibition; format: functional, Erythrocyte; settings: timepoint 72 hour

Row | SMILES | % Inhibition [%] | Z score
1 | Nc1c(NC(=O)NC2CCCCC2)c(-c2ccc(Cl)cc2)nn1-c1ccc(C(F)(F)F)cc1 | -9 | 0.82
2 | Cc1n[nH]cc1CN(C)C(=O)N[C@H]1CCCC[C@@H]1c1ccccc1 | 0 | -0.07
3 | N[C@H](C(=O)Nc1cncc(Br)c1O)C1CCOCC1 | 10 | -1.45
4 | CN(C(=O)[C@@H]1COCC(=O)N1Cc1ccccc1)c1ccccc1 | -1 | 0.2
5 | CCN(C(=O)Cn1c(N2CCCCC2)nc(C)cc1=O)c1ccccc1 | 17 | -1.87
6 | COC(=O)CN(C)CCOc1ccccc1Cl | -4 | 0.62
7 | CC(C)Oc1cccc2c1c(NC(=O)[C@H]1[C@@H]3CNC[C@@H]31)nn2-c1cccc(F)c1 | -10 | 0.98
8 | Cn1nc(CNS(=O)(=O)c2ccc(Cl)s2)c2c1CCCC2 | -7 | 1.48
9 | COc1ccccc1CCN1Cc2cc(NC(=O)c3ccccc3OC)ccc2O[C@@H](C)C1=O | -8 | 0.88
10 | O=c1nc(-c2ccccc2)c(-c2ccccc2)nn1C[C@H](O)c1ccccc1Cl | 5 | -0.85
11 | CN1CCN(c2ncccc2CNC(=O)N[C@H]2CC23CCCCC3)CC1 | -5 | 0.66
12 | CN(C)c1noc([C@@H]2CCCN2C(=O)c2ccsc2)n1 | -4 | 0.42
13 | O=S(=O)(c1ccc(-c2csc(Nc3ccc(Cl)cc3)n2)cc1)N1CCCC1 | 2 | -0.31
14 | O=C(c1cncc(N2CCO[C@H](C3CC3)C2)n1)N1CCOCC1 | -21 | 2.05
15 | C#CCN(Cc1ccco1)Cn1nc(N(C)C)sc1=S | -11 | 1.38
16 | OCCCN1CCN(CC(F)(F)F)c2ccccc21 | -7 | 0.95
17 | CN(C)S(=O)(=O)N[C@H]1CCN(Cc2ccc(F)c(Cl)c2)C[C@@H]1O | 0 | -0.04
18 | CC(=O)N1CCN(C[C@@H]2OC[C@H](NC(=O)c3cccc(F)c3)[C@H]2O)CC1 | -4 | 0.69
19 | O=C1CCc2c(OCC(=O)N3CCCCC3)cccc21 | 3 | -0.4
20 | Cc1nccc(OC2Cc3ccccc3C2N)n1 (configuration not stated) | -1 | 0.07
21 | CC(=O)Nc1ccc(C)cc1S(=O)(=O)N1CC[C@H](n2nc(-c3ccccc3)nc2C)C1 | -17 | 2.23
22 | CC[C@](C)(NCc1noc(C)n1)C(N)=O | 9 | -1.55

Row | SMILES | % Inhibition [%] | Z score
23 | O=C(c1ccc(Cl)c(S(=O)(=O)N2CCCCCC2)c1)N(Cc1ccco1)C1CC1 | -15 | 1.97
24 | Cc1cc(C(=O)Cn2cnc(C#N)n2)c(C)n1CCc1ccc(Cl)cc1 | -9 | 1.55
25 | CN1CC[C@H](CN(C)C(=O)C(C)(C)c2cc(C(F)(F)F)ccn2)C1 | 4 | -0.83
26 | CN1CCC[C@@]2(CCN(C(=O)c3csc(NC4CC4)n3)C2)C1 | 1 | -0.14
27 | CC1Cc2ccccc2N1Cc1occc1C(=O)N1CCC(C2CCN(C)CC2)C1 (configuration not stated) | -5 | 0.67
28 | CC(C)Cn1cc(NCc2cnn(C)c2)cn1 | -2 | 0.23
29 | COCc1nc(C)cc(NCc2cc3n(n2)CCCC3)n1 | -9 | 0.95
30 | CNC(=O)[C@H]1CN(C)C[C@@H]1NC(=O)c1c(F)ccc(F)c1F | 8 | -1.04
31 | CCN(CC)c1nc(N2CCOCC2)nc(N2CC(=O)N(c3ccccc3)C2=N)n1 | -1 | 0.14
32 | O=C(O)[C@@]1(CC2CC2)CCCN(c2ncccc2F)C1 | -15 | 1.99
33 | Brc1cccc2c1OCC[C@@H]2Nc1ncnc2nc[nH]c12 | 28 | -0.35
34 | CNC(=O)C[C@H](C)N(C)C(=O)c1[nH]c2c(C)ccc(C)c2c1C | -14 | 1.53
35 | COC[C@H](O)CNC[C@H]1CC[C@@H](c2ccccc2)O1 | 3 | -0.6
36 | O=c1[nH]c(-c2ccnc(OCC(F)F)c2)nc2cc(F)c(F)cc12 | 0 | -0.04
37 | Cc1nnsc1C(=O)N1CCN(C)Cc2ccccc21 | -12 | 1.61
38 | CN(CCC[C@H]1CCCO1)C(=O)c1ccc2c(c1)CCCC2 | -1 | 0.23
39 | CCn1ncc(N2CCC[C@H](CC(=O)Nc3cc(OC)cc(OC)c3)C2)cc1=O | -5 | 0.57
40 | CC1=NN(S(=O)(=O)c2cnn(C)c2C)[C@@](O)(C(F)(F)Cl)C1 | -15 | 1.71
41 | O=C([C@@H]1COCC(=O)N1Cc1ccccc1)N1CCN(c2ccccc2O)CC1 | -12 | 2.27
42 | Cc1nc(N(C)C)nc(-c2cncc(N)c2)c1C | -7 | 1.28
43 | CCC(=O)Nc1cc(Cl)ccc1Cl | -8 | 1.52
44 | C[C@@H](NC(=O)N[C@@H]1COC(=O)C1)c1cc(Cl)ccc1Cl | -8 | 1.34

Row | SMILES | % Inhibition [%] | Z score
45 | CC(C)(C)CCS(=O)(=O)N1CCC[C@H](S(N)(=O)=O)C1 | 3 | -0.21
46 | Cn1cccc1C(=O)NCc1cn2c(n1)C(=O)N(Cc1ccccc1)CC2 | -5 | 0.66
47 | COC1(C(=O)N2CCN(C(=O)Cc3ccccc3)CC2)CCC1 | -3 | 0.42
48 | CC1(S(=O)(=O)N2CCC[C@H](c3c[nH]nn3)C2)CC1 | 2 | -0.48
49 | Cc1noc(C)c1CCC(=O)Nc1ccc2c(c1)N(C)S(=O)(=O)N2C | 17 | -2.27
50 | CNc1nc2c(s1)[C@@H](c1ccc(Cl)c(Cl)c1)CC(O)=N2 | 3 | -0.4
51 | COCc1nc(C)c(CNC(=O)C[C@H]2CCOC2)s1 | -6 | 1.21
52 | CCOC[C@H]1CCCN1C(=O)c1cc(C(C)C)nn1C | 5 | -0.7
53 | C[C@H](NC(N)=O)C(=O)N(CCc1cccc(F)c1)C1CC1 | 5 | -0.9
54 | CCCn1nnnc1CN1C(=O)N[C@@](CC)(C(C)C)C1=O | 13 | -1.64
55 | CC[C@]1(O)CCN(C(=O)c2ccccc2OC(F)(F)C(F)F)C[C@@H]1O | -14 | 1.31
56 | Cc1noc(C(=O)NCc2ccccn2)c1Cl | 2 | -0.3
57 | CN1CCC(N2CCOc3c(O)cc(-c4ccc(Cl)cn4)cc3C2)CC1 | -7 | 1.33
58 | O=C(CC[C@H]1CCCO1)Nc1ccccn1 | -8 | 0.86
59 | COc1ccc([C@H]2CC(=O)Nc3cccc4c3c2cn4Cc2cccc(F)c2)cc1OCCc1ccc2c(c1)CCO2 | -3 | 0.37
60 | COc1ccc(S(=O)(=O)N[C@H]2CCN(c3ccc(F)c(C)c3)C2=O)cc1 | 6 | -0.91
61 | O=C1N(C2CCCCC2)C[C@H]2CN(S(=O)(=O)c3ccccc3)CCN12 | -15 | 1.93
62 | CO[C@H]1CC[C@@]2(OC)CCN(C(=O)c3cc(C(C)C)nn3C)[C@H]2C1 | -31 | 2.69
63 | N#Cc1ccc(-n2nccc2NC(=O)C(CC2COCCO2)C(F)(F)F)cc1 (configuration not stated) | -16 | 1.96
64 | Cc1nc(-c2ncnn2C2CCCCC2)cs1 | -12 | 1.86
65 | CCc1oc(C(=O)N[C@@H](C)c2ncon2)cc1C | 10 | -0.93
66 | Cc1ccn(CC(=O)N2CCN(Cc3cccnc3)C[C@@H]2C)c(=O)c1 | -4 | 0.46

Row | SMILES | % Inhibition [%] | Z score
67 | Cc1noc(C)c1CC(=O)Nc1ccnn1C1CCCC1 | -9 | 1.65
68 | Cc1ccc2nc(C(=O)N(C)Cc3nc(C)c[nH]3)c(F)n2c1 | -11 | 1.83
69 | O=c1nc2n(c3cc(Cl)c(S(=O)(=O)N4CCOCC4)cc13)CCCCC2 | -5 | 0.58
70 | Cn1c(Cn2ncn3cccc3c2=O)nc2ccccc21 | -5 | 0.71
71 | COCCC(=O)Nc1ccncc1C(=O)C(C)C | -7 | 1.01
72 | CCC[C@]1(CO)CCCN(C(=O)c2cccc(-c3cccs3)c2)C1 | -2 | 0.32
73 | O=C(N[C@@H](CCO)C1CCOCC1)c1ccoc1Cl | 16 | -2.01
74 | Cc1cc(C(=O)NC[C@@]23CCC[C@H]2N(CC2CCCCC2)C(=O)CC3)nn1C | -22 | 2.96
75 | CC[C@H]1c2cccn2CCN1C(=O)c1ncc(Cc2ccccc2)o1 | -16 | 2.17
76 | CCCNC(=O)C(C)NC(=O)C(C)Oc1ccc(Cl)cc1 (configuration not stated) | -9 | 1.73
77 | Cc1noc(C)c1C[C@H](C)C(=O)NS(=O)(=O)CC1CCOCC1 | -7 | 0.87
78 | Cc1c(CNc2cc(F)ccc2N2CCCCC2)cnn1C | 4 | -0.31
79 | Cc1ccc(CN2CC[C@H](CNC(=O)NC(C)C)C2)cc1C | -8 | 1.55
80 | Cc1ccc(S(=O)(=O)Nc2ccc(C)n(CC(=O)N3CCC(C)CC3)c2=O)cc1 | -10 | 1.35
81 | CCc1nnc(C(C)NC2CCCCC2C)o1 (configuration not stated) | -6 | 0.73
82 | CC(C)(CCCO)CNS(=O)(=O)c1c(F)cc(F)cc1C#N | -4 | 0.76
83 | CN(CC1(O)CCCC1)C(=O)c1cnns1 | -1 | 0.12
84 | CC1=C(C(=O)NCCC(=O)Nc2nccs2)[C@H](C)NC(=O)N1 | -9 | 0.84
85 | CC(C)c1ccc(C(=O)NCC(=O)C(C)(C)C)cn1 | -18 | 2.58
86 | Cc1cccc(Cc2sc(NC(=O)Cn3cn[nH]c3=O)nc2C)c1 | -2 | 0.34
